Measurements: PubChem BioAssay (NCATS)
Inconclusive means that the source gave no clear call. Such entries were picked first, then a sample of the others. For some assays here: Potencies beside an inconclusive call are fits to weak or partial responses and may not hold up. The source made the active and inactive calls. Unless noted, calls follow the shape of the dose curve; as a rule, active = well fitted curve in the direction sought with a large enough effect; inconclusive = small, poorly fitted or top-dose-only effect, or another doubt; inactive = no such curve, though single readings can be large; an effect the other way counts as inactive or inconclusive.

How the values were obtained:
[1] = qHTS Assay for Identification of Small Molecule Agonists for Hypoxia Response Element Signaling Pathway (AID 914; active = well fitted activation curve with a large enough effect in the signal ratio, with a control signal flat, not every such curve was filed as active; inconclusive = small, poorly fitted or top-dose-only effect, or effect the other way, or a change in a side signal; the % refers to the signal ratio; also: top concentration of the series differs between compounds; % of control where 0% means no effect); settings: ME-180 (cervical carcinoma) HRE-bla reporter, beta-lactamase ratio, CoCl2, 17 h; activation: active compounds read high
Summary of the method: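 qHTS titration; ME-180 HRE-bla cells; EC50 CoCl2 co-treatment, 17 h at 37 degrees Celsius; CCF4 dye, ex 405nm, em 460nm and 530nm; %Activity from ratio; AC50.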

[2] = target: DNA repair nuclease/redox regulator APEX1 (Homo sapiens) (UniProt P27695); assay: qHTS Validation Assay for Inhibitors of the Human Apurinic/apyrimidinic Endonuclease 1 (APE1) (AID 1705; also: potency is read from the fitted curve at half-maximal effect)
Summary of the method: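 Fluorogenic double-stranded THF abasic-site substrate (5'-TAMRA/3'-BHQ-2), 50 nM final. Enzyme preincubated with compound 15 min at room temperature, then substrate added. Kinetic fluorescence (ex 525/em 598 nm) read three times at 60 s intervals; activity taken as third-minus-first read difference.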

[3] = qHTS for differential inhibitors of proliferation of Plasmodium falciparum line GB4 (AID 1816); settings: Potency: Plasmodium falciparum GB4 proliferation inhibition;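 also: parasite growth measured after 72 h incubation; 0% = vehicle DMSO and -100% = reference inhibitor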
[4] = qHTS for differential inhibitors of proliferation of Plasmodium falciparum line 3D7 (AID 1876);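 also: parasite growth measured after three days of culture; 0% = vehicle wells and -100% = reference inhibitor wells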
[5] = qHTS for differential inhibitors of proliferation of Plasmodium falciparum line Dd2 (AID 1882); settings: Potency: Plasmodium falciparum Dd2 proliferation inhibition;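 also: compound exposure of 72 h on infected erythrocytes; plate controls were DMSO vehicle for no effect and 0.29 µM artemisinin for full effect; nearly all actives have a fitted effect of over 65% in size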
Summary of the method: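 RBC culture, 0.3% parasitemia / 2.5% Hct final; cpd added by pin tool in DMSO; 72 h, 37 C, 5% CO2; lysis buffer + SYBR Green I, o/n RT dark; FI 485/535; norm. to artemisinin 0.29 uM and DMSO.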

[6] = qHTS Assay for Modulators of Human Peripheral Myelin Protein 22 (PMP22) Expression/Activity (AID 1967; active = well fitted curve in the direction sought with a large enough effect in the signal ratio; inconclusive = small, poorly fitted or top-dose-only effect, or effect the other way, or a change in a side signal; inactive = no such curve, though single readings can be large or run the other way; the % refers to the signal ratio; also: potency is read from the fitted curve at half-maximal effect); settings: Cell-based PMP22 reporter, dual-color luciferase ratio, mouse Pmp22 promoter in mouse Schwann cells; activity change (ratio): at 115 µM (top of the series), 0% = compound-free control cells
Summary of the method: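 Mouse MSC80 Schwann cells carrying Pmp22 promoter–green click beetle luciferase plus EF-alpha–red luciferase control, dosed 24 h at 37 °C. Dual-filter luminescence, overlap-corrected; %Activity from green/red ratio normalised to untreated cells, concentration-response curves fitted.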

[7] = NS1 protein of Zika virus - qHTS assay to identify small molecule inhibitors in human HEK 293 cells (AID 1347053); also: potency is read from the fitted curve at half-maximal effect; nearly all actives have a fitted effect of over 55% in size
Summary of the method: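 In this cell-based screen, HEK 293 cultures received compound for one hour before Zika MR766 at MOI = 0.5. NS1 was quantified 24 hours later by TR-FRET, normalized to virus-free wells and infected wells.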

[8] = target: Tyrosine-protein phosphatase non-receptor type substrate 1 (Homo sapiens) + Leukocyte surface antigen CD47 (Homo sapiens) (UniProt P78324+Q08722); assay: CD47-SIRPalpha protein protein interaction - HTRF assay qHTS validation (AID 1347058; active = well fitted curve in the direction sought with a large enough effect in the signal ratio, not every such curve was filed as active; inconclusive = small, poorly fitted or top-dose-only effect, or effect the other way, or a change in a side signal; inactive = no such curve, though single readings can be large or run the other way; the % refers to the signal ratio; also: 0% is about no effect)
Summary of the method: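 Soluble extracellular domains (6His-CD47, Avi-tag-biotinylated SIRPalpha) in PBS pH 7.4 with 0.05% IGEPAL CA-630. Compounds were preincubated 30 min at RT with CD47 and anti-His-Eu, then SIRPalpha and SAV-XL665 were added. TR-FRET 665/615 ratio.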

[9] = qHTS of pediatric cancer cell lines to identify multiple opportunities for drug repurposing: Primary screen for DAOY cells (AID 1347090); settings: DAOY medulloblastoma viability, CellTiter-Glo luminescence, 48 h; activity change, negative = cytotoxic: at 46 µM (top of the series); also: potency is read from the fitted curve at half-maximal effect; nearly all actives have a fitted effect of over 55% in size
Summary of the method: (§1)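 Cell viability, CellTiter-Glo luminescence; 500-1,000 cells/well, 8- or 11-point titration, 48 h compound exposure at 37 degrees C, 5% CO2. Controls: DMSO neutral, bortezomib 2.3 µM final as positive.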

[10] = qHTS of pediatric cancer cell lines to identify multiple opportunities for drug repurposing: Primary screen for SJ-GBM2 cells (AID 1347091); also: potency is read from the fitted curve at half-maximal effect
Summary of the method: as §1

[11] = qHTS of pediatric cancer cell lines to identify multiple opportunities for drug repurposing: Primary screen for A673 cells (AID 1347092); settings: A673 Ewing sarcoma viability, CellTiter-Glo ATP luminescence, 48 h; activity change, negative = cytotoxic: at 46 µM (top of the series); also: potency is read from the fitted curve at half-maximal effect; nearly all actives have a fitted effect of over 45% in size
Summary of the method: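 A673 cells (500-1,000 cells/well) were treated 48 hours at 37 degrees C with compounds at 11-point (0.78 nM to 46 µM) or 8-point (0.59 nM to 46 µM) dilutions. Viability read by CellTiter-Glo luminescence; concentration-response curves fitted.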

[12] = qHTS of pediatric cancer cell lines to identify multiple opportunities for drug repurposing: Primary screen for SK-N-MC cells (AID 1347093); settings: SK-N-MC viability, CellTiter-Glo luminescence, 48 h; activity change, negative = cytotoxic: at 46 µM (top of the series); also: potency is read from the fitted curve at half-maximal effect
Summary of the method: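 Metabolically active cells were quantified by ATP-dependent luminescence (CellTiter-Glo, 15 min at room temperature) following 48 h treatment. Cells had been plated at 500-1,000 per well and settled for 5 h beforehand.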

[13] = qHTS of pediatric cancer cell lines to identify multiple opportunities for drug repurposing: Primary screen for U-2 OS cells (AID 1347096); also: potency is read from the fitted curve at half-maximal effect; nearly all actives have a fitted effect of over 50% in size
Summary of the method: (§2)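 Cells (500-1,000/well) rested 5 h, then received compounds for 48 h; metabolically active cells were measured by CellTiter-Glo luminescence. Final concentrations spanned up to 46 µM (MIPE, 11-point) or 0.59 nM-46 µM (NPC, 8-point) in primary screens, 11-point in follow-ups.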

[14] = qHTS of pediatric cancer cell lines to identify multiple opportunities for drug repurposing: Primary screen for Saos-2 cells (AID 1347097); also: potency is read from the fitted curve at half-maximal effect; nearly all actives have a fitted effect of over 40% in size
Summary of the method: (§3)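 Primary screen of approved and investigational compounds on cells in growth media at 37 degrees C, 5% CO2. MIPE set at 11-point and NPC set at 8-point dilutions; viability scored by ATP-based luminescence at 48 hours.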

[15] = qHTS of pediatric cancer cell lines to identify multiple opportunities for drug repurposing: Primary screen for SK-N-SH cells (AID 1347098); also: potency is read from the fitted curve at half-maximal effect; nearly all actives have a fitted effect of over 65% in size
Summary of the method: as §2

[16] = qHTS of pediatric cancer cell lines to identify multiple opportunities for drug repurposing: Primary screen for NB1643 cells (AID 1347099); also: potency is read from the fitted curve at half-maximal effect; nearly all actives have a fitted effect of over 50% in size
Summary of the method: as §3

[17] = qHTS of pediatric cancer cell lines to identify multiple opportunities for drug repurposing: Primary screen for LAN-5 cells (AID 1347100); also: potency is read from the fitted curve at half-maximal effect
Summary of the method: as §2

[18] = qHTS of pediatric cancer cell lines to identify multiple opportunities for drug repurposing: Primary screen for Rh18 cells (AID 1347102); also: potency is read from the fitted curve at half-maximal effect; nearly all actives have a fitted effect of over 65% in size
Summary of the method: as §2

[19] = qHTS of pediatric cancer cell lines to identify multiple opportunities for drug repurposing: Primary screen for OHS-50 cells (AID 1347103); also: potency is read from the fitted curve at half-maximal effect; nearly all actives have a fitted effect of over 40% in size
Summary of the method: as §2

[20] = qHTS of pediatric cancer cell lines to identify multiple opportunities for drug repurposing: Primary screen for control Hh wild type fibroblast cells (AID 1347106); also: potency is read from the fitted curve at half-maximal effect; nearly all actives have a fitted effect of over 55% in size
Summary of the method: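 Cells (500-1,000/well) in growth media were settled 5 h at 37 degrees C, then given compounds for 48 h. Viability was read as CellTiter-Glo luminescence. Primary runs used MIPE at 11 points (0.78 nM-46 µM) and NPC at 8 points (0.59 nM-46 µM); follow-ups used 11 points.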

[21] = qHTS of pediatric cancer cell lines to identify multiple opportunities for drug repurposing: Confirmatory screen for NB1643 cells (AID 1347109);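 also: plate controls were DMSO for no effect and bortezomib for full effect; nearly all actives have a fitted effect of over 45% in size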
Summary of the method: as §2

[22] = qHTS of pediatric cancer cell lines to identify multiple opportunities for drug repurposing: Confirmatory screen for SK-N-MC cells (AID 1347111);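 also: cells exposed to compound for 48 h before the readout; plate controls were DMSO for no effect and bortezomib for full effect; nearly all actives have a fitted effect of over 70% in size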
Summary of the method: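 Seed 500-1,000 cells/well; rest 5 h at 37 degrees C. Pin-transfer compounds, 11-point titration. Incubate 48 h. Add CellTiter-Glo, 15 min RT, read luminescence.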

[23] = qHTS of pediatric cancer cell lines to identify multiple opportunities for drug repurposing: Confirmatory screen for BT-12 cells (AID 1347112); also: % is scaled to controls: 0 for no effect and ±100 for the full control effect; nearly all actives have a fitted effect of over 55% in size
Summary of the method: as §2

[24] = qHTS of pediatric cancer cell lines to identify multiple opportunities for drug repurposing: Confirmatory screen for NB-EBc1 cells (AID 1347115); settings: NB-EBc1 neuroblastoma cells, viability (cytotoxicity); activity change, negative = cytotoxic: at 45.9 µM (top of the series);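 also: cells exposed to compound for 48 h before the viability read; % is scaled to controls: 0 for no effect and ±100 for the full control effect; nearly all actives have a fitted effect of over 45% in size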
Summary of the method: as §2

[25] = qHTS of pediatric cancer cell lines to identify multiple opportunities for drug repurposing: Confirmatory screen for TC32 cells (AID 1347118);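 also: cells exposed to compound for 48 h before the read; % is scaled to controls: 0 for no effect and ±100 for the full control effect; nearly all actives have a fitted effect of over 65% in size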
Summary of the method: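 Luminescent CellTiter-Glo read-out of metabolically active TC32 cells after 48 h compound exposure. Primary: MIPE 11-point, 0.78 nM–46 µM; NPC 8-point, 0.59 nM–46 µM. Confirmatory: 11-point dilutions.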

[26] = qHTS of pediatric cancer cell lines to identify multiple opportunities for drug repurposing: Confirmatory screen for MG 63 (6-TG R) cells (AID 1347119)
Summary of the method: as §2

[27] = qHTS of pediatric cancer cell lines to identify multiple opportunities for drug repurposing: Confirmatory screen for Rh41 cells (AID 1347123);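 also: plate controls were DMSO for no effect and bortezomib for full effect; nearly all actives have a fitted effect of over 60% in size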
Summary of the method: as §2

[28] = qHTS of pediatric cancer cell lines to identify multiple opportunities for drug repurposing: Confirmatory screen for Saos-2 cells (AID 1347127);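 also: plate controls were DMSO for no effect and bortezomib for full effect; nearly all actives have a fitted effect of over 60% in size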
Summary of the method: as §2

[29] = target: N-terminal Xaa-Pro-Lys N-methyltransferase 1 (Homo sapiens) (UniProt Q9BV86); assay: qHTS Assay for Inhibitors of N-terminal methyltransferase 1 (NTMT1): LOPAC validation of the NTMT1 SAHH-coupled ThioGlo3 Assay (AID 1347143);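 also: SAH from peptide methylation measured as thiol fluorescence via SAHH coupling and ThioGlo3; potency is read from the fitted curve at half-maximal effect; nearly all actives have a fitted effect of over 70% in size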
Summary of the method: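 NTMT1 125nM + cpds (various conc.), 1 min RT; add SAM 100uM/SAHH 10uM/ThioGlo3 15uM (addition mix). SAHH-coupled thiol detection, Ex340/Em450, t0 and 30 min RT; signal normalized to background. LOPAC 1280-cpd pilot.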

[30] = Primary qHTS for small molecule stabilizers of the endoplasmic reticulum resident proteome: Secreted ER Calcium Modulated Protein (SERCaMP) assay (AID 1508630); settings: SH-SY5Y GLuc-SERCaMP (Gaussia luciferase released on ER calcium loss) secretion, thapsigargin, luminescence; activity change, negative = inhibition: at 38.4 µM (top of the series) unless noted; also: potency is read from the fitted curve at half-maximal effect
Summary of the method: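 The SH-SY5Y reporter protocol was run at 3 concentrations up to 38.3 uM (primary) or 11 concentrations (follow-up): 16 h compound, 100 nM thapsigargin for 4 h, then extracellular luciferase luminescence.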

[31] = Quantitative High-Throughput drug screen in 47 multiple myeloma cell lines against the NCATS MIPE library collection: Delta47_JCRB cell viability assay (AID 1918925; also: potency is read from the fitted curve at half-maximal effect; nearly all actives have a fitted effect of over 45% in size); settings: Delta47 myeloma viability, CellTiter-Glo ATP, 48 h; viability (% of DMSO): at 45.8 µM (top of the series)
Summary of the method: (§4)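 Approved and investigational drugs from MIPE 4.0 were added by pin tool to 500 cells per well. After 48 hours at 37C, ATP-based CellTiter-Glo luminescence indicated remaining viability.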

[32] = Quantitative High-Throughput drug screen in 47 multiple myeloma cell lines against the NCATS MIPE library collection: EJM_DSMZ cell viability assay (AID 1918926; also: potency is read from the fitted curve at half-maximal effect; nearly all actives have a fitted effect of over 30% in size)
Summary of the method: as §4
Tags tell the direction and shape of the fitted curve.

Chain of UniProt P27695 (P27695 whole entry, looked up): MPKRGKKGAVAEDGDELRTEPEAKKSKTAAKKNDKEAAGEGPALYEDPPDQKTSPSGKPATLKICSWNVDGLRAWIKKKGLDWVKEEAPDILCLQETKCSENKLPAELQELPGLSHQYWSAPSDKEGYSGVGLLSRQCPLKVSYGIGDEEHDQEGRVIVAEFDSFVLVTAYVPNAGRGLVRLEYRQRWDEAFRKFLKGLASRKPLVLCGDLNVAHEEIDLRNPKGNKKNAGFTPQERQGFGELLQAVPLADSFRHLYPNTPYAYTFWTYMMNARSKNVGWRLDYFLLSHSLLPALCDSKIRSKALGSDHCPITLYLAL
Chain of UniProt P78324 (P78324 whole entry, looked up, the tested form may be a part): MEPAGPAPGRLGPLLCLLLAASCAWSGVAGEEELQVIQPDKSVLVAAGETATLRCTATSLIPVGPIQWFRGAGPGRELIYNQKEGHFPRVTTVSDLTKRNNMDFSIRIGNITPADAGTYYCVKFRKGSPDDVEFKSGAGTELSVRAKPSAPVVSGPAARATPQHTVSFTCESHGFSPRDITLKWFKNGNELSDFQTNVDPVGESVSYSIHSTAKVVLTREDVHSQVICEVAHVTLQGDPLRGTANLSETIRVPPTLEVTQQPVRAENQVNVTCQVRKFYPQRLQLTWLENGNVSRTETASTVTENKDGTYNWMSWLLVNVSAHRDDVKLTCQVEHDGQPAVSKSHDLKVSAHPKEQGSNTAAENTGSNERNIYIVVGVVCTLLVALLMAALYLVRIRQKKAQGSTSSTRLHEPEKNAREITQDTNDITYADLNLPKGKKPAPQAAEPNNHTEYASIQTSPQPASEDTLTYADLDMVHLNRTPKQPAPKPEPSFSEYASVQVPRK
Chain of UniProt P78324 (Q08722 whole entry, looked up, the tested form may be a part): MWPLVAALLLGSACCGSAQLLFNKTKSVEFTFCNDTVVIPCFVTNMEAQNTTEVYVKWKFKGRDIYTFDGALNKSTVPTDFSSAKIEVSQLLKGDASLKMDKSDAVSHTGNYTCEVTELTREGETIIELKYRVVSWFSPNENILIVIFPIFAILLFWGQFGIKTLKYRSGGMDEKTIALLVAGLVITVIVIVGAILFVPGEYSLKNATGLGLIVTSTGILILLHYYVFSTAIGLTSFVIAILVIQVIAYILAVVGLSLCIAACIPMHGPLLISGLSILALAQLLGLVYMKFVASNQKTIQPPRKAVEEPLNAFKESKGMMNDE
Chain of UniProt Q9BV86 (Q9BV86 whole entry, looked up): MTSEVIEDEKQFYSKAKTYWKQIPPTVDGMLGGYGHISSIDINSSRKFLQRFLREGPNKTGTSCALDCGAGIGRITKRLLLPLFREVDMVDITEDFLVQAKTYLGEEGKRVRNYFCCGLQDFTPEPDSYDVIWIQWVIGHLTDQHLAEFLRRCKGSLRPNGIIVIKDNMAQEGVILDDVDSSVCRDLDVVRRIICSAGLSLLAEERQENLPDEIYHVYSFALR

Cc1cn[nH]c1
inactive: Potency [3] | Potency [4] | Potency [5] | Potency [8] | Potency [21] | Potency [22] | Potency [23] | Potency [24] | Potency [25] | Potency [27] | Potency [28]
inconclusive: activation [1] 7% | Potency [2] 44700 nM [inhibitor, single point] | Potency [6] 37900 nM [falling, single point] | Potency [7] 35500 nM [inhibitor, single point] | Potency [9] 148 nM [cytotoxic, full curve, poor fit] | Potency [10] 46.9 nM [cytotoxic, full curve] | Potency [11] 118 nM [cytotoxic, full curve, poor fit] | Potency [12] 52.6 nM [cytotoxic, full curve, poor fit] | Potency [13] 590 nM [cytotoxic, full curve] | Potency [14] 52.6 nM [cytotoxic, full curve] | Potency [15] 242 nM [cytotoxic, full curve] | Potency [16] 33.2 nM [cytotoxic, full curve] | Potency [17] 5.9 nM [cytotoxic, full curve] | Potency [18] 23.5 nM [cytotoxic, full curve] | Potency [19] 34700 nM [cytotoxic, single point] | Potency [20] 5900 nM [cytotoxic, partial curve] | Potency [26] 20800 nM [cytotoxic, partial curve, poor fit] | Potency [29] 79400 nM [inhibitor, partial curve] | Potency [30] 35500 nM [inhibitor, partial curve, poor fit]
active: Potency [31] 296 nM | Potency [32] 105 nM
